Positions count from the first letter of the chain named. The list shows a part of the results.

Sequences and labels used below:
T1: RBFOX1 RRM (Homo sapiens, UniProt Q9NWB1 109-208)
T1 sequence: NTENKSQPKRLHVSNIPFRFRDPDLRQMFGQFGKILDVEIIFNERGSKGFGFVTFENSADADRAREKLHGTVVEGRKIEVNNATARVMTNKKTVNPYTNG

B1: UUGAGUG (DNA:RNA)
RNA: GGGAGACCGGAAUUCAGAUUGUCCUUGAGUGUUAAAUCCCGUCGUAGCCACCA
DNA 1: CAATCTGAATTCCGGTCTCCC
DNA 2: TGGTGGCTACGACGGGATT
B2: UUAUCAC (DNA:RNA)
RNA: B1 RNA with G27A, A28U, G29C, U30A, G31C
DNA 1: CAATCTGAATTCCGGTCTCCC
DNA 2: TGGTGGCTACGACGGGATT
B3: CGUGAAU (DNA:RNA)
RNA: GGGAGACCGGAAUUCAGAUUGUCCCGUGAAUUUAAAUCCCGUCGUAGCCACCA
DNA 1: CAATCTGAATTCCGGTCTCCC
DNA 2: TGGTGGCTACGACGGGATT
B4: UGGGCGC (DNA:RNA)
RNA: B3 RNA with C25U, U27G, A29C, A30G, U31C
DNA 1: CAATCTGAATTCCGGTCTCCC
DNA 2: TGGTGGCTACGACGGGATT
B5: GAGAAGU (DNA:RNA)
RNA: B3 RNA with C25G, G26A, U27G, G28A, A30G
DNA 1: CAATCTGAATTCCGGTCTCCC
DNA 2: TGGTGGCTACGACGGGATT
B6: ACGGCGA (DNA:RNA)
RNA: B3 RNA with C25A, G26C, U27G, A29C, A30G, U31A
DNA 1: CAATCTGAATTCCGGTCTCCC
DNA 2: TGGTGGCTACGACGGGATT
B7: GAUUAAG (DNA:RNA)
RNA: B3 RNA with C25G, G26A, G28U, U31G
DNA 1: CAATCTGAATTCCGGTCTCCC
DNA 2: TGGTGGCTACGACGGGATT
B8: UUUUUAA (DNA:RNA)
RNA: B3 RNA with C25U, G26U, G28U, A29U, U31A
DNA 1: CAATCTGAATTCCGGTCTCCC
DNA 2: TGGTGGCTACGACGGGATT
B9: AGUAUCU (DNA:RNA)
RNA: B3 RNA with C25A, G28A, A29U, A30C
DNA 1: CAATCTGAATTCCGGTCTCCC
DNA 2: TGGTGGCTACGACGGGATT
B10: GCACUGC (DNA:RNA)
RNA: GGGAGACCGGAAUUCAGAUUGUCCGCACUGCUUAAAUCCCGUCGUAGCCACCA
DNA 1: CAATCTGAATTCCGGTCTCCC
DNA 2: TGGTGGCTACGACGGGATT
B11: CUGUUUC (DNA:RNA)
RNA: B1 RNA with U25C, A28U, G29U, G31C
DNA 1: CAATCTGAATTCCGGTCTCCC
DNA 2: TGGTGGCTACGACGGGATT
B12: UAAUCCU (DNA:RNA)
RNA: B3 RNA with C25U, G26A, U27A, G28U, A29C, A30C
DNA 1: CAATCTGAATTCCGGTCTCCC
DNA 2: TGGTGGCTACGACGGGATT
B13: AGCUUGA (DNA:RNA)
RNA: B10 RNA with G25A, C26G, A27C, C28U, C31A
DNA 1: CAATCTGAATTCCGGTCTCCC
DNA 2: TGGTGGCTACGACGGGATT
B14: CGGUGGU (DNA:RNA)
RNA: B3 RNA with U27G, G28U, A29G, A30G
DNA 1: CAATCTGAATTCCGGTCTCCC
DNA 2: TGGTGGCTACGACGGGATT
B15: UGUUCCC (DNA:RNA)
RNA: B3 RNA with C25U, G28U, A29C, A30C, U31C
DNA 1: CAATCTGAATTCCGGTCTCCC
DNA 2: TGGTGGCTACGACGGGATT
B16: GUGAUUU (DNA:RNA)
RNA: B1 RNA with U25G, G29U, G31U
DNA 1: CAATCTGAATTCCGGTCTCCC
DNA 2: TGGTGGCTACGACGGGATT
B17: CCACCAG (DNA:RNA)
RNA: B10 RNA with G25C, U29C, G30A, C31G
DNA 1: CAATCTGAATTCCGGTCTCCC
DNA 2: TGGTGGCTACGACGGGATT
B18: AAGCCUG (DNA:RNA)
RNA: B1 RNA with U25A, U26A, A28C, G29C
DNA 1: CAATCTGAATTCCGGTCTCCC
DNA 2: TGGTGGCTACGACGGGATT
B19: UUGGUCG (DNA:RNA)
RNA: B1 RNA with A28G, G29U, U30C
DNA 1: CAATCTGAATTCCGGTCTCCC
DNA 2: TGGTGGCTACGACGGGATT
B20: AAUUGUA (DNA:RNA)
RNA: B1 RNA with U25A, U26A, G27U, A28U, G31A
DNA 1: CAATCTGAATTCCGGTCTCCC
DNA 2: TGGTGGCTACGACGGGATT
B21: UUUGUCU (DNA:RNA)
RNA: B3 RNA with C25U, G26U, A29U, A30C
DNA 1: CAATCTGAATTCCGGTCTCCC
DNA 2: TGGTGGCTACGACGGGATT
B22: CCAUUAU (DNA:RNA)
RNA: B3 RNA with G26C, U27A, G28U, A29U
DNA 1: CAATCTGAATTCCGGTCTCCC
DNA 2: TGGTGGCTACGACGGGATT
B23: GACCCCU (DNA:RNA)
RNA: B10 RNA with C26A, A27C, U29C, G30C, C31U
DNA 1: CAATCTGAATTCCGGTCTCCC
DNA 2: TGGTGGCTACGACGGGATT
B24: CUCGCAG (DNA:RNA)
RNA: B3 RNA with G26U, U27C, A29C, U31G
DNA 1: CAATCTGAATTCCGGTCTCCC
DNA 2: TGGTGGCTACGACGGGATT
B25: AGGACCA (DNA:RNA)
RNA: B1 RNA with U25A, U26G, G29C, U30C, G31A
DNA 1: CAATCTGAATTCCGGTCTCCC
DNA 2: TGGTGGCTACGACGGGATT
B26: CCAGGCC (DNA:RNA)
RNA: B10 RNA with G25C, C28G, U29G, G30C
DNA 1: CAATCTGAATTCCGGTCTCCC
DNA 2: TGGTGGCTACGACGGGATT
B27: GCAUUGG (DNA:RNA)
RNA: B10 RNA with C28U, C31G
DNA 1: CAATCTGAATTCCGGTCTCCC
DNA 2: TGGTGGCTACGACGGGATT
B28: AGGCGGU (DNA:RNA)
RNA: B3 RNA with C25A, U27G, G28C, A29G, A30G
DNA 1: CAATCTGAATTCCGGTCTCCC
DNA 2: TGGTGGCTACGACGGGATT
B29: CCUAUCC (DNA:RNA)
RNA: B10 RNA with G25C, A27U, C28A, G30C
DNA 1: CAATCTGAATTCCGGTCTCCC
DNA 2: TGGTGGCTACGACGGGATT
B30: GUUGAGG (DNA:RNA)
RNA: B3 RNA with C25G, G26U, A30G, U31G
DNA 1: CAATCTGAATTCCGGTCTCCC
DNA 2: TGGTGGCTACGACGGGATT
B31: UUGCUUU (DNA:RNA)
RNA: B1 RNA with A28C, G29U, G31U
DNA 1: CAATCTGAATTCCGGTCTCCC
DNA 2: TGGTGGCTACGACGGGATT

For this test, the target named is T1, RBFOX1 RRM. The test is described as follows: EMSA; HiTS-Eq, 1 nM pool, 10 min; buffer printed only for the single-RNA assays: 10 mM Tris pH 7.5, 150 mM NaCl, 3.4 mM EDTA, 0.001% NP-40, 30 C. As to conditions: tags: His6 N-terminal (pET28a); label: 5' 32P. The gist of the method:
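Purified RbFox RRM (wild type or mutant) was equilibrated for 10 min in 50 µL with 1 nM of a 5′-radiolabelled pool of RNA with 7 randomized nucleotides, its flanks annealed to DNA oligonucleotides, across increasing protein concentrations. Free RNA was separated by 8% native PAGE, excised, reverse-transcribed, PCR-barcoded and sequenced on an Illumina HiSeq 2500. Relative association constants came from read-count changes of each variant against the control reaction, normalised to the cognate motif.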
For orientation: A gel shift assay detects complexes by their altered migration in electrophoresis.
Consider B1, for which the binding signal was 0.0333 KA relative to UGCAUGU.
Under B2 stands 0.00249 KA relative to UGCAUGU.
Regarding B3, the binding signal is 0.00862 KA relative to UGCAUGU.
Under B4 stands 0.0335 KA relative to UGCAUGU; under B5, 0.0151 KA relative to UGCAUGU.
Under B6 stands 0.0123 KA relative to UGCAUGU.
Under B7 stands 0.00955 KA relative to UGCAUGU; under B8, 0.00784 KA relative to UGCAUGU.
B9: the binding signal was 0.00723 KA relative to UGCAUGU.
Under B10 stands 0.018 KA relative to UGCAUGU; under B11, 0.0146 KA relative to UGCAUGU; under B12, 0.00283 KA relative to UGCAUGU.
Under B13 stands 0.0217 KA relative to UGCAUGU; under B14, 0.0161 KA relative to UGCAUGU.
Regarding B15, the binding signal is 0.0148 KA relative to UGCAUGU.
Under B16 stands 0.0182 KA relative to UGCAUGU; under B17, 0.00235 KA relative to UGCAUGU.
Take B18: the binding signal is 0.0167 KA relative to UGCAUGU.
Under B19 stands 0.0376 KA relative to UGCAUGU; under B20, 0.0068 KA relative to UGCAUGU.
Under B21 stands 0.0178 KA relative to UGCAUGU; under B22, 0.00134 KA relative to UGCAUGU.
Under B23 stands 0.0029 KA relative to UGCAUGU.
B24: the binding signal is 0.0115 KA relative to UGCAUGU.
Under B25 stands 0.0117 KA relative to UGCAUGU; under B26, 0.0113 KA relative to UGCAUGU.
Under B27 stands 0.0185 KA relative to UGCAUGU; under B28, 0.0148 KA relative to UGCAUGU.
Under B29 stands 0.00783 KA relative to UGCAUGU; under B30, 0.0122 KA relative to UGCAUGU.
In the case of B31, the binding signal was 0.0232 KA relative to UGCAUGU.
